Source: the supplement of paper PMC7125110
± gives the standard error. This sample is rich in variants without activity.

B1: glmS ribozyme (parent)
chain: AUAAAAGCGCCAGAACUACAGAAAUGUAGUUGACGAGGAGGAGGUUUAUCGAAUUUUCGGCGGAUGCCUCCAAA

What was measured:
Details in all cases: with glucosamine-6-phosphate
[1] = variants of: B1; assay: self-cleavage kobs at 640 uM GlcN6P; higher = faster cleavage; RNA array
Summary of the method: (§1)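 Barcoded glmS ribozyme variants on sequenced MiSeq chips were transcribed in situ by E. coli RNA polymerase and tracked through a hybridised Cy3 probe at 37 °C. Glucosamine-6-phosphate (40 μM to 10 mM) in HEPES/KCl/Mg(OAc)2 buffer was flowed in, and tiles were imaged over ~14 h. Signals were normalised to baseline and to non-cleaving reference variants; per-tile medians were fit to one- or two-exponential decays to give kobs. kcat and KM came from weighted Michaelis–Menten fits across concentrations.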

[2] = variants of: B1; assay: self-cleavage kobs at 160 uM GlcN6P; higher = faster cleavage; RNA array
Summary of the method: as §1

[3] = variants of: B1; assay: self-cleavage kobs at 2500 uM GlcN6P; higher = faster cleavage; RNA array
Summary of the method: as §1

[4] = variants of: B1; assay: self-cleavage kobs at 10000 uM GlcN6P; higher = faster cleavage; RNA array
Summary of the method: as §1

| Variant | self-cleavage kobs at 640 uM GlcN6P [1] [s⁻¹] | self-cleavage kobs at 160 uM GlcN6P [2] [s⁻¹] | self-cleavage kobs at 2500 uM GlcN6P [3] [s⁻¹] | self-cleavage kobs at 10000 uM GlcN6P [4] [s⁻¹] |
| --- | --- | --- | --- | --- |
| AUAAAAGAGCCAGAACUACAGAAAUGUAGUUGACGAGGAGGAGGUGUAUCGAAUUUUCGGCGGAUGCCUCCAAA [C8A U46G] | < 1e-05 | < 1e-05 | < 1e-05 |  |
| AUAAAAGAGCCAGAACUACAGAAAUGUAGUUGACGAGGAGGAGGUUUAGCGAAUUUUCGGCGGAUGCGUCCAAA [C8A U49G C68G] | 0.000875 ± 0.00033 |  |  |  |
| AUAAAAGGGCCAGCACUACAGAAAUGUAUUUGACGAGGAGGAGGUUUAUCGGAUUUUCGGCGGAUGCCUCCAAA [C8G A14C G29U A52G] | < 1e-05 |  |  |  |
| AUAAAAGGGCCAGUACUACAGAAAUGUAGUUGACGAGGACGAGGUUUAUCGAAUUUUCGGCGAAUGCCUCCAAA [C8G A14U G40C G63A] | < 1e-05 |  |  | < 1e-05 |
| AUAAAAGGGCCAGAUCUACAGAAAUGUAGUUGACGGGGAGGAGAUUUAUCGAAUUUUCGGCGGAUGCCUCCAAA [C8G A15U A36G G44A] | < 1e-05 |  | < 1e-05 |  |
| AUAAAAGGGCCAGAUCUACAGAAAUGUAGUUGACGAGGAGGAGGUUUAUCUAAUUUUCGGCGGAUGCCUCUAAA [C8G A15U G51U C71U] | < 1e-05 |  |  |  |
| AUAAAAGGGCCAGAACUACAGAAAUGUAGUUGACGAGGAGGAGGUUUUUCGAAUUUUCGGUGGAUGCCUUCAAA [C8G A48U C61U C70U] | < 1e-05 |  | < 1e-05 |  |
| AUAAAAGGGCCAGAACUACAGAAAUGUAGUUGACGAGGAGGAGGUUUAUCGACUCUUCGGCGGACGCCUCAAAA [C8G A53C U55C U65C C71A] | < 1e-05 |  |  | < 1e-05 |
| AUAAAAGGGCCAGAACUACAGAAAUGUAGUUGACGAGGAGGAGGUUUAUCGAUUUUUCAGCGGAUGCCUCCAAA [C8G A53U G59A] | < 1e-05 |  |  |  |
| AUAAAAGGGGCAGAACUACAGAAAUGUAGUUGACGAGGAGGAGGUUUAUCGAAUUUUCGGCGGAUGCCUCCAAA [C8G C10G] | < 1e-05 | < 1e-05 | < 1e-05 | < 1e-05 |
| AUAAAAGGGUCAGAACUACAGAAAUGUAGUUGACGAGGAGGAGGUUUAUCGAAUUUUCGUCGGAUGCCUCCAAA [C8G C10U G60U] | < 1e-05 | < 1e-05 |  | < 1e-05 |
| AUAAAAGGGCUAGAUCUACAGAAAUGUACUUGACGAGGAGUAGGUUUAUCGAAUUUUCGGCGGAUGCCUCCAAA [C8G C11U A15U G29C G41U] | < 1e-05 |  |  | < 1e-05 |
| AUAAAAGGCCCAGAACUACAGAAAUGUAGUUGACGAGGAGGAGGUUUAUCGAAUGUUCGGCGGAUGCCGCCAAA [C8G G9C U55G U69G] | < 1e-05 | < 1e-05 |  |  |
| AUAAAAGGUCCUGAACUACAGAAAUGUAGGUGACGAGGAGGAGGUUUAUCGAAUUUUCGGCGGCUGCCUCCAAA [C8G G9U A12U U30G A64C] | < 1e-05 | < 1e-05 |  |  |
| AUAAAAGGGCCAAGACUACAGAAAUGUAGUUCACGAGGAGGAGGUUUAUCGAAUUUUCGGCGGAUGCCUCCAAA [C8G G13A A14G G32C] | < 1e-05 |  |  |  |
| AUAAAAGGGCCACUACUACAGAAAUGUAGUUGACGAGGAGGUGGUUUAUCCAAUUUUCGGUGGAUGCCGCCAAA [C8G G13C A14U A42U G51C C61U U69G] | < 1e-05 |  | < 1e-05 | < 1e-05 |
| AUAAAAGGGCCACAACUACAGAAAUGUAGUUGGCGAGGAGGAGGUUUAUCGAAUUUUCGGCGGAUGCCUCCAAA [C8G G13C A33G] | < 1e-05 | < 1e-05 | < 1e-05 |  |
| AUAAAAGGGCCACAACUACAGAAAUGUAGUUGACGAGGAGGAGGUUUAUCGUAUUUUCGGCGGAUGCCGCCAAA [C8G G13C A52U U69G] | < 1e-05 |  | < 1e-05 |  |

| Variant | self-cleavage kobs at 640 uM GlcN6P [1] [s⁻¹] | self-cleavage kobs at 160 uM GlcN6P [2] [s⁻¹] | self-cleavage kobs at 2500 uM GlcN6P [3] [s⁻¹] | self-cleavage kobs at 10000 uM GlcN6P [4] [s⁻¹] |
| --- | --- | --- | --- | --- |
| AUAAAAGGGCCACAACUACAGAAAUGUAGUUGACGAGGAAGAGGUUUAUCGAAUUAUCUGCGGAUGCCUCCAAA [C8G G13C G40A U56A G59U] | < 1e-05 |  |  |  |
| AUAAAAGGGCCAGAACUACAGAAAUGUAGUUAACGAGGAGGAGGUUUAUCGAAUUUUUGGCGGAUGCCUCCAAA [C8G G32A C58U] | < 1e-05 |  | < 1e-05 |  |
| AUAAAAGGGCCAGAACUACAGAAAUGUAGUUCACGAGGAGGAGGUUUAUCGAAUUUUCGGCGGAUGCCUCUAAA [C8G G32C C71U] | < 1e-05 |  |  |  |
| AUAAAAGGGCCAGAACUACAGAAAUGUAGUUUACGAGGAGGAGGUUUAUCGAAUUUUCGGCGGAUGCCUCCAAA [C8G G32U] | < 1e-05 |  | < 1e-05 |  |
| AUAAAAGGGCCAGAACUACAGAAAUGUAGUUGACUAGGAGGUGGUUUAUCGAAUUUUCGGCGGAUGCCUCCAAA [C8G G35U A42U] | < 1e-05 | < 1e-05 | < 1e-05 |  |
| AUAAAAGGGCCAGAACUACAGAAAUGUAGUUGACGAGGAGGAGGUUUAUCGAAUUUUCGCCGCAUGCCUCAAAA [C8G G60C G63C C71A] | < 1e-05 |  | < 1e-05 |  |
| AUAAAAGGGCCAGAACUACAGAAAUGUAGGUGACGAGGAGGAGGUUUAUCGAAUUUUCCGCGGAUGCCUCCAAA [C8G U30G G59C] | < 1e-05 |  | < 1e-05 |  |
| AUAAAAGGGCCAGAACUACAGAAAUGUAGUUGACGAGGAGGAGGUUGAUCGAAUUUUCGGCAGAUGCCUCCAAA [C8G U47G G62A] | < 1e-05 | < 1e-05 | < 1e-05 |  |
| AUAAAAGUGCCCGAACUACAGAAAUGUAGUUGACGAGGAGGACGUUUACCGAAUUUUCGGCGGAUGCCUCCAAA [C8U A12C G43C U49C] | < 1e-05 | < 1e-05 | < 1e-05 | < 1e-05 |
| AUAAAAGUGCCAGAACUACAGAAAUGUAGUUGACGAGGAGGAGGUUUAUCGUAUUUUCGUCGGAUGCUUCCAAA [C8U A52U G60U C68U] | < 1e-05 |  |  |  |
| AUAAAAGUGACAGAACUACAGAAAUGUAGUUGACGAGGAGGAGGUUUAUCGAAUUUUCGGCAGAUGCCUCCAAA [C8U C10A G62A] | < 1e-05 | < 1e-05 |  |  |
| AUAAAAGUGCUAGAACUACAGAAAUGUAGUUGACGAGGAGGAGGUUUAUCGAAUAUUCGGCAGAUGCCUCCAAA [C8U C11U U55A G62A] | < 1e-05 |  | < 1e-05 |  |
| AUAAAAGUGCCAGAACUACAGAAAUGUAGUUGAUGAGGCGGAGGUUUAUCGAAUUUUCGGCGGAUGCCUCCAAA [C8U C34U A39C] | < 1e-05 |  | < 1e-05 |  |
| AUAAAAGUGCCAGAACUACAGAAAUGUAGUUGACGAGGAGGAGGUUUAUGAAAUUUUCGGCGGCUGCCUCCAAA [C8U C50G G51A A64C] | < 1e-05 |  |  |  |
| AUAAAAGUGCCAGAACUACAGAAAUGUAGUUGACGAGGAGGAGGUUUAUCGAAUUUUCGGCGGAUGCUUCCAAA [C8U C68U] | < 1e-05 | < 1e-05 | < 1e-05 |  |
| AUAAAAGUACCAGAUCUACAGAAAUGUAGUUGACGAGGGGGAGGUUUAUCGAAUUUUCGGCGGAUGCCUCCAAA [C8U G9A A15U A39G] | < 1e-05 |  | < 1e-05 |  |
| AUAAAAGUACCAGAACUACAUAAAUGUAGUUGACGGGGAGGAGGUUUAUCGAAUUUCCGGCGGAUGCCUCCAAA [C8U G9A G21U A36G U57C] | < 1e-05 |  |  |  |
| AUAAAAGUCCCAGAACUACAGAAAUGUAGUUGACGAGGAGGAGGUUUAUCGAAUUUUCGGCGGAUGCCUCCAAA [C8U G9C] | < 1e-05 | < 1e-05 | < 1e-05 | < 1e-05 |
